Data from publication PMC12136788.
This is one part of the list.

T1: UNK ZnF1-3 (human, UniProt Q9C0B0 31-174)
T1 sequence: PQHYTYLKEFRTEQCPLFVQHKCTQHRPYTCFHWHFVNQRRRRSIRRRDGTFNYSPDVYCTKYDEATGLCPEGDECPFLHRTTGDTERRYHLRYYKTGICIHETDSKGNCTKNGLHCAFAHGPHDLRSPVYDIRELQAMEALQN

B1: chr17:26961916:26961917:-_ENSG00000007202_ENST00000528896|hu_mus|FALSE|FALSE (ssRNA)
RNA: GGGAGUUCUACAGUCCGACGAUCCACUUUGGCAUCUAGCAACUGCAGCCUUUUGGCACUCUCCUUACUUUCAUCCUUCAUCAGUUCGUAGUUAUCAUGAAGUUUCACCUCAAAGAUGUCAUCCAGGAAAACCCAAGAAAAGUGCAACAGAGGAUUGAGCAUCA
B2: chr3:19992450:19992451:+_ENSG00000144566_ENST00000273047|hu_mus|FALSE|FALSE (ssRNA)
RNA: GGGAGUUCUACAGUCCGACGAUCUUUCACAAAGCGAAGAACCAGGCUUGAUUUGCCAACAGCAGACUCUCCUAGAAGGACCAGUUUGAACUGGCAUAUUUUAUUUCCAGUAUUUGGCCCGUUGGGUCUUGUUGCUCCUCGAUUCAACAGAGGAUUGAGCAUCA
B3: chr9:14812383:14812384:-_ENSMUSG00000031934_ENSMUST00000164273|mus_hu|motif|central (ssRNA)
RNA: GGGAGUUCUACAGUCCGACGAUCAUAGCCCAGGUAGAUACACGCUAACAGUAUAAUGAUGAGUGUCAGCAGGCGGCAGCGGAUGUACUUGAUGAUUAAAUUAUUAGAAUUUUUCUUUGUCUUCAAGUACUGCUCCACAAUUGGCAACAGAGGAUUGAGCAUCA
B4: chr5:128448638:128448639:+_ENSG00000066583_ENST00000173527|hu_mus|hu_hu_hu_mus_False|68_78 (ssRNA)
RNA: GGGAGUUCUACAGUCCGACGAUCGGCACUCGCCUUAAUUAGGUUCUGAAUUUCCUUGAAUUUUGGAUGGUCCUUAUCAGCCACCAGCUGUAGGAGGACAGCCUCACUAGUGGUCACGAUGAUCCCAGUGCGGGCAAGACGCUCCAACAGAGGAUUGAGCAUCA
B5: chr8:17827181:17827182:+_ENSG00000078674_ENST00000519253|hu_mus|motif|central (ssRNA)
RNA: GGGAGUUCUACAGUCCGACGAUCGCUUUCAAAGGGUUUUGGAAAAGCCAUAUACUCUGUUUUCCCUGAAGGAUUUUGAGCGGAUGGCUGCUGCUGUUCAGUAGGUGUAGAAACAUUCUGAGAAAAAUCUCCAAAAUUAGAAGGCAACAGAGGAUUGAGCAUCA
B6: chr1:63113421:63113422:-_ENSG00000116641_ENST00000251157|hu_hu|FALSE|FALSE (ssRNA)
RNA: GGGAGUUCUACAGUCCGACGAUCUAAGCAUUUUACAAGAAGUCUUUGACCAAAAUGUUCUUUGGGUAUAUCAGGAACACUAAGCCGUUCUAUUGGUUCUUCCUCAUCUGGUGAUGGAUGCAAAGCAAAAAGUUCUUUGUGACGCAACAGAGGAUUGAGCAUCA
B7: 73686211_73694862_353_CDS_ENSMUSG00000029152_ENSMUST00000031038|mouse|control|control (ssRNA)
RNA: GGGAGUUCUACAGUCCGACGAUCUGAACCAUAUUUUGGAUGACUUGACAGGAUUCCUUUACUAAUUAAUCCUUGAGUAAUCAGCAUACUUGUGGCAGCCAACGGCACAGAUCUGAACCAGAAGCACUCUUCAUGGCACUCUGCCAACAGAGGAUUGAGCAUCA
B8: 32187752_32189466_2706_3pUTR_ENSMUSG00000029765_ENSMUST00000115096|mouse|control|control (ssRNA)
RNA: GGGAGUUCUACAGUCCGACGAUCACAGAUCUUCAAAGGUACAGUUGACACCUGCUGACAGCUCCGGGACAUUGUAUGUCUCUAGGACCAGCAGCACGUUGUACUGAGAGACAGAGAUGUUGUUGGGAUGGACCGUCAGCCGGACAACAGAGGAUUGAGCAUCA
B9: chr1:29069439:29069440:+_ENSG00000198492_ENST00000541996|hu_hu|motif|central (ssRNA)
RNA: GGGAGUUCUACAGUCCGACGAUCUGCUGGUUUUGGAGGAGCAAUGGUGGCUGGAGGCAAACUAUUGGAAGCCACGAUGUUACGGGUAAUGGACCCGCUACCAACAGCAGAACCUACAACUUUUGGAACAUUGCUUGCAACUUCCAACAGAGGAUUGAGCAUCA
B10: chr2:114691908:114691909:+_ENSG00000115091_ENST00000536059|hu_hu|motif|central (ssRNA)
RNA: GGGAGUUCUACAGUCCGACGAUCGCCAAUCACAUACCCUUCAGCCACAGGAAUGACAUGAGUGACACCAUCUCCACUGUCGGUUACCGUACCGGUCAACGUCCGUUCUCCUACUUGUCUUGAGGUCCAAGAUGCAGCUAAGGCCAACAGAGGAUUGAGCAUCA
B11: chr12:111957846:111957847:-_ENSG00000204842_ENST00000535949|hu_mus|motif|central (ssRNA)
RNA: GGGAGUUCUACAGUCCGACGAUCUGCUAACUGGUUUGCCCUUGCCUCCCGUUUAAGAAAUUCUUCUGAGUUGUCCCUUUCGGAAGGAACCGUAUAUGAAGAUAAACUGCUAUCAUAUGUGGACACCACACCAUAAUUCUCUUCCAACAGAGGAUUGAGCAUCA
B12: chr2:160855017:160855018:-_ENSMUSG00000057133_ENSMUST00000039782|mus_hu|FALSE|FALSE (ssRNA)
RNA: GGGAGUUCUACAGUCCGACGAUCAUCCUUUUCGAGCUCUUCCAUUGUGGCCCAUUUACAAUGUAAGUAGGAAAAAUUUCUAUACUUAACGUAGAACAGCUCCAAGUCGAACGGAGGUUCUCCUGGGUGAACCUCCUGGACAGUCAACAGAGGAUUGAGCAUCA
B13: chr5:124911765:124911766:+_ENSMUSG00000049327_ENSMUST00000059580|mus_mus|FALSE|FALSE (ssRNA)
RNA: GGGAGUUCUACAGUCCGACGAUCAUGGGAGACCAGGAGCUCUGCCUUGGCAGCAGGUGGAGAACUUCCCAUGCAGCAGAAUUGGGGUUAGGGAGGGGGUGUGGGCUUAGUAAUUUCUGGUCCCACUACAAAACCUCACUUUUGCAACAGAGGAUUGAGCAUCA
B14: 12687287_12688270_1685_3pUTR_ENSMUSG00000031010_ENSMUST00000089302|mouse|control|control (ssRNA)
RNA: GGGAGUUCUACAGUCCGACGAUCAAUUUGGCCAGUAGAUCAUGUACAUUCUUUACAAUGGCUUCAUGUUUCCCUGCCUGUGCUGCCCAGAUAUUAUCAAGAUCUUGCAAGGUCAGAGCUUUUUCUUUUAUGACAAAGCGAAGACAACAGAGGAUUGAGCAUCA
B15: chr11:102301342:102301343:-_ENSMUSG00000034685_ENSMUST00000049057|mus_hu|FALSE|FALSE (ssRNA)
RNA: GGGAGUUCUACAGUCCGACGAUCCGGCACCUCUGUCCCAUUACCUGUCAGCAGGUGCACGCUCACAGCAGUCAGGGGCAUCAGCUCCAGCCAGGAGCCAUUGCCUGAGCUGGAGGCCUCAGUGCCCAGGAAGGCAGGGAAAGCCAACAGAGGAUUGAGCAUCA
B16: chr5:138118867:138118868:+_ENSG00000044115_ENST00000302763|hu_mus|motif|central (ssRNA)
RNA: GGGAGUUCUACAGUCCGACGAUCAGCCAAAACAUGGGCCUUCUUAGAACGGCCUCUCUUUUUAUUAGACGGCCCUUUACGGUUGGUGUUUACCAGGGUUGUAACCUGUGUAACAAGAGGCUCCAACAGUCUUUCAACAGCCAGCAACAGAGGAUUGAGCAUCA
B17: chr13:13450785:13450786:-_ENSMUSG00000021306_ENSMUST00000021738|mus_mus|FALSE|FALSE (ssRNA)
RNA: GGGAGUUCUACAGUCCGACGAUCGGCCAGAAGUAUUUAUUGUUAAUACUCUGUGGGGACCUCUUGGCUUGUAGCCUGACUAUAGCAAGCACUGGCUGAGUCAAAGAAGGCACAGUCCUUGCAUCCUACUGAGGUACUGAGGUACAACAGAGGAUUGAGCAUCA
B18: chr8:107054336:107054337:-_ENSMUSG00000031878_ENSMUST00000034349|mus_mus|FALSE|FALSE (ssRNA)
RNA: GGGAGUUCUACAGUCCGACGAUCUGAUCCAAUACCUGGCAGCACCAAGUUUUUAAGAAUUUCAGUUCCUGUAGCCGUUGCAUUUAUUAAGCAAACAUGAGCAGAUUCCAAAGCUUCUUGUCCAUGAUCACCCCACAGCCUCAGCAACAGAGGAUUGAGCAUCA
B19: chr14:78183846:78183847:+_ENSG00000119705_ENST00000557342|hu_hu|hu_hu_hu_mus_False|8_38 (ssRNA)
RNA: GGGAGUUCUACAGUCCGACGAUCUCUCAGAAAUCUUUCUUCAUCAGAUGUUUGAGCUCCGUGCAAAGCCUUUGCUCUUUGAGCUUGAACGUGGAUCUUUACUCCAUAAAGCACUGUCAGAAAAGGUUGUAGUGCAUUUAAAGACAACAGAGGAUUGAGCAUCA
B20: chr1:187193504:187193505:+_ENSMUSG00000026615_ENSMUST00000046514|mus_hu|motif|central (ssRNA)
RNA: GGGAGUUCUACAGUCCGACGAUCAUCAAUCUCAGUAUGUUCCAUCAGAUUAGAGCCAUAUAACCCAGCUGUAGUUGCAACUCGGGCCAAGUAGCGAAGUAUAGAAUUCACAUCUGUGAAUAUCACAUUUUCAGAAACAUGAAGCAACAGAGGAUUGAGCAUCA
B21: chr2:173053163:173053164:-_ENSMUSG00000038400_ENSMUST00000036248|mus_mus|motif|central (ssRNA)
RNA: GGGAGUUCUACAGUCCGACGAUCGAGCUUCUGCAUUCAGACCACACAGAACAUGUAAAUAUUUAUACACAGACAGGAGAACGGCCACACGGCCACUCAGCCUGUGUGUCCCCUGACUUCCUCUCUCUUCUCUCUUAAGAAGUGCAACAGAGGAUUGAGCAUCA
B22: chrX:153608698:153608699:+_ENSG00000102119_ENST00000428228|hu_mus|FALSE|FALSE (ssRNA)
RNA: GGGAGUUCUACAGUCCGACGAUCUAAAGAAGAGAAAAUGUCAUCACGCACCUGGUGAUGGAAGGUAUCAGCAUCUACAAGUGAGGUCCCCGGCUGGCGGAAGCUCUUGGACAUGCCCACAGACUCAGGCUCCCCGUAUGUCUUCAACAGAGGAUUGAGCAUCA

Biological target: T1, UNK ZnF1-3
Test: nsRBNS (natural sequence RNA bind-n-seq); RBNS binding buffer (assumed for nsRBNS): 25 mM Tris pH 7.5, 150 mM KCl, 3 mM MgCl2, 0.01% Triton X-100, 500 ug/ml BSA, 20 U/ml SUPERase-In, 4 C; UNK is unkempt and MSI1 is Musashi-1; names of the RNAs are library labels; protein concentration not given here; high values mean tight binding

Binder | binding signal [enrichment R]
B1 | 1.09
B2 | 0.704
B3 | 1.42
B4 | 0.885
B5 | 1.27
B6 | 0.839
B7 | 0.739
B8 | 0.471
B9 | 1.04
B10 | 1.19
B11 | 0.976
B12 | 0.672
B13 | 1.16
B14 | 0.836
B15 | 0.896
B16 | 1.13
B17 | 0.896
B18 | 1.57
B19 | 0.727
B20 | 1.25
B21 | 0.889
B22 | 1.28
